Experimental data reported in the supplement of paper PMC3334620.
Over roughly 33,000 sequences, “E-score (-0.5 to 0.5)” has its median near -0.04; the highest 2% begin near 0.36. This is one part of the list.

biological target: T1, Hmlalpha2 (UniProt P0CY09); experiment: PBM E-score (8-mer binding enrichment) (E-score (-0.5 to 0.5)); higher = stronger / more preferred TF binding; most listed sequences are background and not binding sites; conditions: protein concentration: 200 nM; construct: GST-full length
T1 sequence: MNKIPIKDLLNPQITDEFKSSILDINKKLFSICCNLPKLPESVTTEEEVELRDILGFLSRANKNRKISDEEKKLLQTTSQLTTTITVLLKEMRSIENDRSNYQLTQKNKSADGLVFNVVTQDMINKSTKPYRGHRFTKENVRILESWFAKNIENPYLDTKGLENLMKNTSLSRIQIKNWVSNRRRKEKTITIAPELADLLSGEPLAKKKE
How it was run: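 Universal all-10-mer Agilent arrays, double-stranded by primer extension on fresh or once-stripped slides, were probed with about 100-200 nM GST-tagged yeast transcription factors made by PURExpress. Fluorescent anti-GST detected bound protein, and masliner normalised the scans. E-scores from the Universal PBM Analysis Suite were given to each ungapped eight-base word pooled with its reverse complement.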

Sequence | PBM E-score
GTGTGAGA | 0.0378
AATCTACG | 0.203
CACAACTA | 0.231
ACGGCCAC | -0.128
ATGGTTGA | -0.0541
AATTCAGG | 0.00401
CGCGTGGC | -0.141
CTCACAAA | -0.0772
TAACAATA | 0.25
CAGTGTAC | 0.154
AATTTAGC | 0.0165
CACTACAA | 0.268
ACGCGACG | 0.347
ACGGCGAT | -0.0673
AAAGTTCT | 0.0159
AAACTTCA | 0.0766
GATTAAGC | -0.0456
ACATAAGT | 0.356
CTCCCCGA | -0.191
CAAATCTG | -0.0335
ATCGAGAT | -0.115
GCACTCCC | -0.147
CGCCTTGA | -0.196
CGTCGCTA | -0.0358
TCGGTCAA | -0.0506

Sequence | PBM E-score
AAAGACCG | -0.119
GAAACTGA | -0.103
CCGACCTA | -0.128
GAGCCTAA | -0.0246
GAAGGCGC | -0.237
ATAATTCA | 0.221
TGCCGTAA | -0.0171
CAAGAACC | 0.0865
CGTTAACG | 0.211
CGCAACTA | 0.0764
CCGTTCCA | -0.0782
TCTGACAA | 0.138
AGCTATTA | 0.0436
CAATCCAG | -0.139
CTTTACGC | 0.42
CACTATGG | -0.0979
AGCGTCAT | -0.0362
CAAAGCGG | 0.0664
ACAGTTAG | -0.128
AGAGTGTG | 0.0438
ACACATAG | 0.282
GACTCGTA | 0.0321
GCTACGTA | 0.25
ACTTGCAT | 0.103
ACAGCGGG | -0.0601

Sequence | PBM E-score
ATTGCAGC | -0.145
CCCATACA | 0.0756
ACCTAAAC | 0.098
ATGCCTGG | -0.156
ATCCTAGC | -0.0219
GGGGAAAA | -0.236
AGAAACCA | -0.0818
GTTCTACA | 0.29
CGGCTGCA | -0.0118
CAGAACGA | 0.0755
CATAGGAC | -0.0432
AGATCGCC | -0.0822
CTTTATTC | -0.132
CCCTGGCC | -0.296
ATCGGTTA | 0.039
GCCACCGC | -0.33
GAAGAAAA | -0.00099
CATAGTCA | -0.00969
CCTGCAGG | -0.392
CAAGATTG | 0.0495
ACCCGTGC | -0.136
ATAACTAC | 0.288
AGAAGAGG | -0.209
CACCCCTC | -0.276
CGAGTCTC | -0.322

Sequence | PBM E-score
CGACCTAA | 0.0192
GTTTATAA | 0.295
GAGCCCCC | -0.389
CCTTGCTA | 0.00553
CAAGCGGA | -0.114
ATCCCCGA | -0.0944
CAATAAGA | 0.0453
ACGGCTCT | -0.193
ATACTTCA | -0.00082
ATCTTAAA | -0.0724
CCTCATTA | 0.138
ATTTGCTG | 0.024
TCGCCAAA | -0.179
AGTTCTCG | -0.0561
AAGTCAAC | 0.0754
CAGCGACC | -0.303
AATATCAC | -0.0554
AAAGGCAT | 0.0489
CTGCGATC | -0.182
AGCTGAGC | -0.16
GGAGGCGA | -0.148
AATCCTTG | 0.103
AACGCCCC | -0.0523
ATCAGAAA | -0.054
ATTCTCAG | -0.0746

Sequence | PBM E-score
AATAGGGC | 0.0131
ACTTTCAT | 0.0115
CAGGTGGA | -0.164
TGTAACAA | 0.384
CGTCTGAC | -0.139
CTAGTGAG | -0.133
ATCTTAAG | -0.218
CTTAACTA | 0.266
GAAAAAGC | -0.145
ACGAAAAG | 0.0451
CAACTGAC | -0.123
GCTCCACA | -0.222
AACACGTT | 0.403
GCAATAGA | -0.157
CTCCTTTA | -0.0707
ATGCTATA | 0.105
AAGAAATA | 0.14
ATCACAAC | 0.167
AGAGCCTA | -0.095
AGCGCCGA | -0.185
TCTGCAAA | 0.0308
GTACATAC | 0.362
AGAAAGTG | -0.223
ATGAGTAA | 0.0671
ATTGCATC | 0.104

Sequence | PBM E-score
CTTTTCCC | -0.0258
AAAGTAAA | 0.174
CGGTGAAA | 0.0361
AAGAAGAT | -0.0289
GGGGCACC | -0.263
ATACAATG | 0.171
AATGGGAA | -0.194
AACATGGC | 0.406
AAACCTCA | 0.0137
AAACGACC | -0.0775
ATTGTGGC | -0.0619
GCATGAGC | -0.0934
CGTCCAGC | -0.0879
ACACAGGA | 0.284
CCGTAGTC | -0.282
GAGCTGGC | -0.112
GAATGAGC | -0.0545
GAGGACGC | -0.208
AACCCTAG | 0.0776
TGTCGCAA | 0.088
GTCCGATA | -0.161
CACGGACC | -0.0468
AAAACAGC | 0.0366
CACCCCCC | -0.262
CCCCGGTA | -0.255

Sequence | PBM E-score
ACGGAGTC | -0.138
ATATCCGA | -0.0397
AGTATCCG | -0.0438
CCCTGGGC | -0.302
AGGTACTA | 0.102
CAAACTTC | 0.127
CCCCCCCC | -0.403
CCGGGGCC | -0.385
TCGAGACA | -0.0896
ATTCCTGA | -0.0807
AAATGACA | 0.0996
CGCGGAGA | 0.00486
CTGCTACA | 0.207
CCGTGTCA | 0.351
TCGACTAA | 0.0638
AAGGATCG | 0.0461
CAAGGAGC | -0.0695
CCCACAAG | -0.186
AATTAATG | 0.147
CATGACTA | 0.0356
ACCTATCC | -0.144
ACTTGTGG | -0.0568
